Test results reported in patent publication US20190343964A1 (SHIZUOKA PERFECTURE, published 2019).

Target: T1, B7-H4 expressed on the membrane surface of cancer cells (human, UniProt Q7Z7D3 25-282)
T1 sequence (looked up): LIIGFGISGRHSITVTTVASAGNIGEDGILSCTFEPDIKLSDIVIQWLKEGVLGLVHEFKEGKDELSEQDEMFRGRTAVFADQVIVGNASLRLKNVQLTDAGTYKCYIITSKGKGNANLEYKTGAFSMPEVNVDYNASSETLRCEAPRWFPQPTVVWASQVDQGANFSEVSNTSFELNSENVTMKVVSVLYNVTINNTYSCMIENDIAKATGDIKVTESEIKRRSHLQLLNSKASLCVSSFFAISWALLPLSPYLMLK
Assay: cell-based or functional assay

B1: scFv-scFv according to the present invention (bispecific antibody)
chain: NIQMTQSPSSLAVSAGEKVTMSCKSSHAVLYSSNQKNYLAWYQQKPGQSPKLLIYWASTRDSGVPDRFTGGGSGTDFTLTITNIQPEDLAVYYCHQYLSSWTFGGGTKVEIKGGSGGGGSGGGGSGGEFQLQQSGPELVKPGASVKMSCKASGYIFTSYVVHWVKQKPGQGLEWIGYINPYNDGTKYSEKFKGKATLTSDKSSSTAYMELSSLTSDDSAVYYCARDGVYGYHAMDCWGQGTSVTVSSGGSGGGGSGGGGSGGQVQLQQSGAELARPGASVKMS[about 80 residues not shown]WGQGTTLTVSSGGSGGGGSGGGGSGGQIVLTQSPAIMSASPGEKVTMTCSASSSVSYMNWYQQKSGTSPKRWIYDTSKLASGVPAHFRGSGSGTSYSLTISGMEAEDAATYYCQQWSSNPFTFGSGTKLEIKGGGHHHHHH
In the case of B1, the “50% maximum effective concentration (EC50) of cytotoxicity (% Lysis) to MDA-MB-468 cells, LDH release, with human peripheral blood mononuclear cells, 16 hours” value is reported as 0.068 µg/mL.
